Results taken from publication PMC4336329 (PLoS ONE, 2015).
In all, about 310,000 compounds went through this assay and about 2,200 (0.71%) showed an effect of 50% or more. The effect is printed as a negative number. This is one part of the list.

These compounds were tested against human ether-à-go-go-related gene (hERG) potassium channel (human, UniProt Q12809) (assay: primary screen, population patch clamp on CHO cells stably expressing hERG).
human ether-à-go-go-related gene (hERG) potassium channel, sequence (Q12809 whole entry, looked up): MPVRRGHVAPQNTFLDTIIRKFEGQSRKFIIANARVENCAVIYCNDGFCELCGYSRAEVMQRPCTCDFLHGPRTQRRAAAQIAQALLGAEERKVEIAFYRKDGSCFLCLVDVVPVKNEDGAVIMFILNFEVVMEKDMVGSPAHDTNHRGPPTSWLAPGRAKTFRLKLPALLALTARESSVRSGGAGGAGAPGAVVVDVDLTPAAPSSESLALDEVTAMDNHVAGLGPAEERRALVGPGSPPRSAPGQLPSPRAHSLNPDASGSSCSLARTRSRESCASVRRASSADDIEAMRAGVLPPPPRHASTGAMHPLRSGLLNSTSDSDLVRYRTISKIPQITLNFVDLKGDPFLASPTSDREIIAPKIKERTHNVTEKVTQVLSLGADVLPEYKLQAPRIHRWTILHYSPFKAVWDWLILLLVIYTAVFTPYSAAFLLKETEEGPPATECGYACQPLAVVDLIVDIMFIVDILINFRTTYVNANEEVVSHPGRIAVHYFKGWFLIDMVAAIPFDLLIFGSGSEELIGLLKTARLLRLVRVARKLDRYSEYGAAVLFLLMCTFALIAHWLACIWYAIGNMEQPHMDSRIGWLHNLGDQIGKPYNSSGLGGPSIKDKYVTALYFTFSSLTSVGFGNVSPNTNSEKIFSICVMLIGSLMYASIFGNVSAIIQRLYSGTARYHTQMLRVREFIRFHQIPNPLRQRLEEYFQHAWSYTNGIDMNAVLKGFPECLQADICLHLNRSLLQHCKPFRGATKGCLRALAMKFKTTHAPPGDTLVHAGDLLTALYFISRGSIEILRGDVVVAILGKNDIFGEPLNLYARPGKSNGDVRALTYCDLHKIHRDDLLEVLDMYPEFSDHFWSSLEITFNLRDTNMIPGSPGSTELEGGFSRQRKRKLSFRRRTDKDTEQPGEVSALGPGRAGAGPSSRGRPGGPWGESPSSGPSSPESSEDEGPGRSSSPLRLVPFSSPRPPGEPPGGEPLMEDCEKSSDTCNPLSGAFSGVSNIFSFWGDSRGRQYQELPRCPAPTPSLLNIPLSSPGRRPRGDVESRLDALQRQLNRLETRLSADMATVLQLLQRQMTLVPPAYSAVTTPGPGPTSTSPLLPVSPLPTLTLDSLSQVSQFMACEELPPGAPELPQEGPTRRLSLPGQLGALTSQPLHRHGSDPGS

Row | Structure (SMILES) | hERG current change (%, negative = inhibition) at 1uM [%]
1 | Cc1ccc(CCNC(=O)C2CCN(S(=O)(=O)c3ccc4c(c3)CCC(=O)N4)CC2)cc1 | 5.74
2 | S=c1[nH]nc(-c2ccc(Br)cc2)n1Cc1ccccc1 | 12.8
3 | Cn1cc(CN2CCCC(C(=O)c3nccn3C)C2)c(-c2cccc(Cl)c2)n1 (stereo not drawn) | 9.44
4 | Cc1cccc(NC(=O)CC2CCC2)c1 | 1.8
5 | CC1CCCN(C(=O)c2ccc(COc3ccccc3Br)cc2)C1 (stereo not drawn) | 13.4
6 | NC(=O)C1CCN(CC(=O)c2c[nH]c3ccc(F)cc23)CC1 | 4.86
7 | COCC(C)NS(=O)(=O)c1ccc(C(=O)NCCCn2ccc3ccccc32)cc1 (stereo not drawn) | 17.9
8 | O=S1(=O)c2cccc3cccc(c23)N1Cc1nnc(-c2ccccc2Br)o1 | 1.17
9 | CC1(C)Cc2ccccc2-c2nnnn21 | 1.49
10 | Cc1ccc(CSCC(N)C(=O)O)cc1 (stereo not drawn) | 11.2
11 | C(=C\c1ccccc1)/CN1CCN(Cc2ccc3c(c2)OCO3)CC1 | 6.43
12 | CC(C)CCNCC(=O)NC(c1ccccc1)c1ccccc1.Cl | 7.38
13 | CN1C(=O)C(c2ccccc2[N+](=O)[O-])C(=O)c2ccccc21 (stereo not drawn) | 2.32
14 | O=C(CNC1CCCCC1)Nc1cccc(C(F)(F)F)c1 | 13.4
15 | CC(C)NC(=O)C(c1ccc(F)cc1)N(Cc1ccco1)C(=O)CCC(=O)Nc1ccccn1 (stereo not drawn) | 9.72
16 | CCn1c(C(=O)O)c(CC(=O)N(C)c2ccc(OC)cc2OC)c2ccccc21 | 15.6
17 | CC(C)C[C@H](NC(=O)N1CC(=O)Nc2ccccc21)C(=O)N[C@H](Cc1c[nH]c2ccccc12)C(=O)O | 10.1
18 | CC(C)c1ccc(NC(=O)C2CCCN(S(=O)(=O)c3cccnc3)C2)cc1 (stereo not drawn) | 21.1
19 | C=CCn1cnc2sc(C(=O)Nc3ccccc3OC)c(C)c2c1=O | 10.9
20 | Cc1ccc(-c2cc(C(=O)OCC(=O)N(C)c3c(N)n(Cc4ccccc4)c(=O)[nH]c3=O)c3ccccc3n2)o1 | 18.6
21 | O=C1CSC(c2ccccc2)N1c1cccnc1 (stereo not drawn) | 8.37
22 | COc1ccc(-c2nnn(CC(=O)c3ccc4c(c3)OCCO4)n2)cc1OC | 8.73
23 | CC(NS(=O)(=O)c1ccc(Br)cc1)C(=O)NCC1CCCO1 (stereo not drawn) | 14.1
24 | O=C(COC(=O)c1ccccc1)Nc1cc(Cl)ccc1Oc1ccccc1 | -7.48
